# Laboratory results from PubChem BioAssay AID1671193 (National Center for Advancing Translational Sciences (NCATS), 2021).
# Where “and” joins values, the source holds several entries; their conditions need not be identical. Equal entries are not always repeated. Out of some 150,000 compounds screened, about 180 (0.12%) were called active. Inconclusive means that the source gave no clear call. Such entries were picked first, then a sample of the others. Calls come from the whole dose curve; as a rule, active = well fitted cell-killing curve with a large enough effect; inconclusive = small, poorly fitted or top-dose-only effect, or effect the other way; inactive = flat fitted curve, though single readings scatter. A potency beside an inconclusive call is a rough fit, not a confirmed value.
# Test: GF-AFC viability counterscreen for inhibitors of alpha-synuclein gene (SNCA) expression; note: nearly all actives have a fitted effect of over 30% in size;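 for activity change, negative = cytotoxicity: 0% = DMSO-treated cells and -100% = medium-only wells without cells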
# Settings: HEK-293-SNCA-luc viability, GF-AFC fluorescence, 24 h; activity change, negative = cytotoxicity: at 57.1 µM (top of the series) unless noted
# In short: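 Cytotoxicity counterscreen: after 24 h compound treatment of genome-edited SNCA-luciferase HEK-293 cells, live-cell protease substrate GF-AFC read by fluorescence after 30 min; activity scaled between DMSO (0%) and medium-only (-100%), curves Hill-fitted.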
# Potency is the fitted concentration of half-maximal effect; tags give direction and shape of the fitted curve.
SMILES,Potency,"activity change, negative = cytotoxicity"
COc1cc(C(=O)O)ccc1NC(=O)C1NC(CC(C)(C)C)C(C#N)(c2ccc(Cl)cc2F)C1c1cccc(Cl)c1F (centres undefined),"inconclusive: 23.8 µM [cytotoxic, single point]",
CC(C)C[C@@H](N)[C@H](O)C(=O)N[C@H](C(=O)N[C@H](C(=O)N[C@@H](CC(=O)O)C(=O)O)C(C)C)C(C)C,"inconclusive: 6.07 µM [cytotoxic, partial curve, poor fit]",
N#C/C(=C\c1ccc(-c2ccccc2C(=O)O)o1)c1nc2ccccc2[nH]1,"inconclusive: 22.4 µM [cytotoxic, partial curve, poor fit]",
CC(C)CCNC(=O)Cn1ccn2nc(-c3ccccc3)c(CO)c2c1=O,"inconclusive: 39.8 µM [cytotoxic, single point]",
CC1=C[C@@H](CNCCN(C)C)[C@H](C(C)C)C[C@H]1Cc1nnc(-c2ccc(C)cc2)o1,,inactive: -28.7% [at 87.6 µM]
NCC1CCN(c2nccc(-c3ccc4ccccc4c3)n2)CC1,"inconclusive: 37.7 µM [cytotoxic, single point]",
COCC(=O)NC[C@@H]1C=C(C)[C@H](CC(=O)N(C)Cc2ccccc2)C[C@H]1C(C)C,"inconclusive: 35.5 µM [cytotoxic, partial curve, poor fit]",
COc1cc2c(=O)c(C(=O)c3ccc(C)c(C)c3)cn(Cc3ccccc3)c2cc1OC,"inconclusive: 2.51 µM [cytotoxic, full curve, poor fit]",
CCCCC(CC)CNC(=O)CCCc1nnc2n(CCC)c(=O)c3sccc3n12 (centres undefined),"inconclusive: 10 µM [cytotoxic, partial curve, poor fit]",
Cc1ccc(C)c(N2CCN(C(=O)Cn3c(=O)c4cccn4c4ccc(F)cc43)CC2)c1,"inconclusive: 2 µM [rising, full curve, poor fit]",
Cc1cccc(C(=O)N2CCCCC2c2nc(C3CC3)n[nH]2)c1 (centres undefined),,inactive: -12.4%
COCCNC(=O)CSc1c2c(nc3cc(Cl)ccc13)CCCC2,"inconclusive: 31.6 µM [cytotoxic, single point]",
Oc1ccc(-c2nc3ccccn3c2Nc2ccc3c(c2)OCCO3)cc1,"inconclusive: 17.8 µM [cytotoxic, partial curve, poor fit]",
Cc1ccc(C(=O)N2CCC(C(=O)N3CCC(c4nc5ccncc5[nH]4)CC3)CC2)cc1,"inconclusive: 6.31 µM [cytotoxic, single point]",
FC(F)(F)c1ccc2nc([C@H]3CCN(Cc4ccc(Cl)cc4)C3)[nH]c2c1,"inconclusive: 56.2 µM [cytotoxic, single point]",
CCOc1ccc(NC(=O)c2sc3nc4c(cc3c2N)CCCCCC4)cc1,,inactive: 4.65%
CN(C)CCN(C)C(=O)c1ccc2c(c1)NC(C)(COc1ccccc1)CO2 (centres undefined),,inactive: 7.06% [at 87.6 µM]
Cc1noc2c(NCCN(C)C)cc(-c3ccc(Cl)cc3)nc12,,inactive: -16.2% [at 87.6 µM]
COc1ccc(NC(=O)Cn2c(N(C)Cc3ccccc3)nc(C)cc2=O)cc1,,inactive: -25.5%
Cc1nn(-c2ccc(F)cc2)c(C)c1[C@@H]1C=C[C@@H](NCc2ccc(C(C)C)cc2)C1,"inconclusive: 56.2 µM [cytotoxic, single point]",

SMILES,Potency,"activity change, negative = cytotoxicity"
COc1ccccc1-c1nnc([C@H]2CCN(CC(C)C)C2)o1,,inactive: -3.23% [at 87.6 µM]
CCc1ccc(-n2c(SC(CC)C(=O)N(CC)CC)nc3n[nH]c(C)c3c2=N)cc1 (centres undefined),"inconclusive: 39.8 µM [cytotoxic, partial curve, poor fit]",
Cc1cccc(OCCSc2nc3ccccc3n2CC(=O)N2CCCCC2)c1C,"inconclusive: 15.8 µM [cytotoxic, partial curve, poor fit]",
O=C(NC1CCN(c2cc(-c3cccs3)[nH]n2)C1)c1ccccc1Cl (centres undefined),"inconclusive: 6.31 µM [cytotoxic, partial curve, poor fit]",
CN(C)c1nc(N)nc(CNC(=O)c2csc(Cc3ccccc3)n2)n1,,inactive: -1.87%
Cc1cc2oc(=O)c(CC(=O)NCCc3ccccc3)c(C)c2c2occ(C(C)(C)C)c12,"inconclusive: 17.8 µM [cytotoxic, single point]",
CCN1CCC(N(Cc2ccc3c(c2)OCO3)C(=O)Nc2cc(Cl)ccc2C(=O)OC)CC1,"inconclusive: 28.2 µM [cytotoxic, single point]",
Cc1ccc(NC(=O)CSc2nc3ccccc3c3nc(CCn4cncc4C)nn23)cc1F,"inconclusive: 10 µM [cytotoxic, partial curve]",
COc1ccc(C(=O)N[C@@H]2CCC[C@@H]2C(=O)N2CCN(c3ccccc3F)CC2)cc1,"inconclusive: 22.4 µM [cytotoxic, partial curve, poor fit]",
COCc1cn(C[C@H]2C[C@@H](NCc3cccnc3)[C@H](O)[C@@H]2O)nn1,,inactive: -2.86% [at 87.6 µM]
COc1cccc(CN2CCCC(COc3ccccc3C(=O)NC3CC3)C2)n1 (centres undefined),"inconclusive: 22.4 µM [cytotoxic, partial curve, poor fit]",
CCCS(=O)(=O)c1ncc(Cl)c(C(=O)N2CCN(c3ccc(OC)cc3)CC2)n1,"inconclusive: 20 µM [cytotoxic, partial curve, poor fit]",
CCNc1ncc2nc(-c3cccs3)c(=O)n(C)c2n1,"inconclusive: 8.91 µM [rising, partial curve]",
CN(C)C(=O)NC1(c2ccccc2)CCN(CCC[C@]2(c3ccc(Cl)c(Cl)c3)CCCN(C(=O)c3ccccc3)C2)CC1,"inconclusive: 13.4 µM [cytotoxic, partial curve, poor fit]",
COc1ccccc1-c1cccc(CN2CCC(NC(C)=O)CC2)c1,,inactive: -2.18%
Cc1ccc(-c2noc([C@@H]3CCCN3C(=O)c3ccc4c(c3)OCO4)n2)cc1,"inconclusive: 6.31 µM [cytotoxic, partial curve, poor fit]",
Cc1ccc(CS(=O)(=O)c2cn(CC(=O)N(C)c3ccccc3)c3ccccc23)cc1,"inconclusive: 31.6 µM [cytotoxic, single point]",
Cc1cc(C(=O)N2CCCC(C(=O)Nc3cccc(-c4cc5ccccc5[nH]4)c3)C2)nn1C (centres undefined),"inconclusive: 22.4 µM [cytotoxic, single point]",
COc1ccc(CNC(=O)N2CCC(Oc3ccc(-c4noc(C5CC5)n4)cc3)C2)cc1 (centres undefined),"inconclusive: 25.1 µM [cytotoxic, single point]",
O=C(c1nc(-c2ccc(Cl)cc2)n2c1CCCCC2)N1CCN(c2ccccc2F)CC1,"inconclusive: 14.1 µM [cytotoxic, partial curve]",

SMILES,Potency,"activity change, negative = cytotoxicity"
COc1ccccc1CNC(=O)CC1N=C2c3ccccc3N=C(SCC(=O)Nc3ccc(F)cc3)N2C1=O (centres undefined),"inconclusive: 11.2 µM [cytotoxic, partial curve, poor fit]",
O=C(c1ccccc1)N1CCc2sc(C(=O)N3CCN(c4ccc(F)cc4)CC3)cc2C1,"inconclusive: 39.8 µM [cytotoxic, single point]",
Cc1cnc(C2CC2)n1C1CCCN(C(=O)C(C)C)C1 (centres undefined),,inactive: -5.77%
COc1ccc(C(=O)NCCn2cc(SCC(=O)Nc3ccc4c(c3)OCCO4)c3ccccc32)cc1,"inconclusive: 25.1 µM [cytotoxic, single point]",
COCc1ccc2c(c1)c(OC(C)(C)C(=O)NC1CCC(O)CC1)nn2CCC(C)C (centres undefined),,inactive: -11.8% [at 87.6 µM]
Cc1cccc(CN2CCN(Cc3nc(-c4cccs4)oc3C)CC2CCO)n1 (centres undefined),,inactive: -2.49%
CN1CCC(NC(=O)C(C)(C)Oc2nn(Cc3cccc(Cl)c3)c3ccccc23)CC1,"inconclusive: 35.5 µM [cytotoxic, single point]",
COc1ccc(C(=O)N2CCc3nc(C(C)C)nc(-c4ccc(Cl)cc4)c3CC2)cc1,"inconclusive: 6.31 µM [cytotoxic, partial curve, poor fit]",
CC(C)(C)c1cc(C[C@H]2CNCC[C@H]2CC(=O)N2CCC(Cc3ccccc3)CC2)no1,,inactive: -14.7%
CCN(CC)c1ccc2cc(-c3nnc(Nc4ccc(C)cc4)s3)c(=O)oc2c1,"inconclusive: 3.55 µM [rising, full curve, poor fit]",
COc1ccc(Nc2ccnc(N3CCCC(C(=O)NCCc4ccccc4F)C3)n2)cc1 (centres undefined),"inconclusive: 17.8 µM [cytotoxic, single point]",
CN(CC(O)COc1cccc(CNCCOc2ccccc2)c1)C1CCCCC1 (centres undefined),"inconclusive: 39.8 µM [cytotoxic, single point]",
CC(C)NCC(O)c1ccc(O)c(O)c1 (centres undefined),"inconclusive: 12.6 µM [cytotoxic, partial curve, poor fit]",
O=C(Nc1cccc(C(F)(F)F)c1)N[C@H]1CO[C@H]2[C@@H]1OC[C@H]2O,,inactive: -9.62% [at 87.6 µM]
COc1ccccc1-c1cccc(CN2CCCC(C(=O)Nc3ccc(F)cc3)C2)c1 (centres undefined),"inconclusive: 0.708 µM [cytotoxic, full curve, poor fit]",
COc1ccc(Cl)cc1NC(=O)CSc1nc(=O)n(Cc2ccco2)c2c1CCC2,"inconclusive: 35.5 µM [cytotoxic, single point]",
CS(=O)(=O)N1CCN(Cc2cc3nc(-c4cccc5[nH]ncc45)nc(N4CCOCC4)c3s2)CC1,"inconclusive: 68.1 nM [cytotoxic, full curve, poor fit] and inconclusive: 844 nM [cytotoxic, full curve, poor fit]",
CCn1nc(-c2ccc3c(c2)OCO3)nc1N(C)C,"inconclusive: 31.6 µM [cytotoxic, partial curve, poor fit]",
Cc1cc(N2CCOCC2)cc2[nH]c(-c3c(NC[C@@H](O)c4cccc(Cl)c4)cc[nH]c3=O)nc12,"inconclusive: 0.336 µM [cytotoxic, full curve, poor fit]",
